Measurements as given in the supplement of paper PMC10338343.
± gives the standard deviation. The list shows a part of the results, in another mix than the full data.

Tested on: MIWI (PIWIL1) piRISC loaded with piRNA #1 (30 nt)
Experiment: pre-steady-state target cleavage rate (min^-1); MIWI and MILI are mouse PIWI proteins and EfPiwi is from a freshwater sponge; tags in brackets are library labels; higher = faster piRNA-guided slicing of the target
Conditions: guide: piRNA #1 5'p-UGAGGUAGUAGGUUGUAUAGUAUCCAGAGG; auxiliary factor: 500 nM mouse GTSF1
In short: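 For Cleave-'n-Seq, a transcribed, DNA-blocked target RNA library […] met 1 nM active affinity-purified piRISC with one synthetic guide at 33 °C for 0–8 or 0–960 min in HEPES–potassium acetate buffer, with or without 500 nM GTSF1 partner protein. Uncleaved targets were sequenced and normalised to depth and weakly complementary targets, with three trials pooled and k3 capped at 0.0001 min^-1. A burst-and-steady-state fit supplied the pre-steady-state cleavage rate.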
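Further: 1 nM active piRISC with 0.1 nM target library at 33 °C single turnover.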

Row | Sequence | pre-steady-state target cleavage rate
1 | GGAGACCUAUCUUUACAACCUACUAGCUCA | 0.0562 ± 0.015
2 | GCUCUGGAUUCUAUUCAACCUACUACCUCA | 1.02 ± 0.077
3 | GGAGUGGAUACUAUUCAACGUACUACCUCA | 0.553 ± 0.04
4 | GGAGACCUUACUAUACAACCUACUGACCUCA | 0.59 ± 0.041
5 | CCUGUGGAUAGUAUACAACCUACUACCUCA | 0.0347 ± 0.0098
6 | GGAGACCAUACUAUACAAGCUACUACCUCA | 0.952 ± 0.049
7 | GGAGACCAUACUAUACAACCUACUACCCA | 0.47 ± 0.044
8 | GCUGCUGGAUACUAUACAACCUACUACCUCA | 2.01 ± 0.14
9 | GGAGACCUUACUAUACAACCUACUUACCUCA | 1.36 ± 0.11
10 | GGACUGGAAACUAUUCAACCUACUACCUCA | 1.24 ± 0.1
11 | GGUCUGGAUACUAUACAACCUACUACCCUCA | 0.749 ± 0.087
12 | GGUCUGGAUACUAUACAACCUACUACCUCG [g2:g28:cont:t1G] | 1.12 ± 0.083
13 | GGAGUGGAUACUAUAAAACCUACUACCUCA | 1.53 ± 0.092
14 | GGAGACCUAACUAUACUACCUACAACCUCA | 0.00419 ± 0.0032
15 | CCUCUGGAUACUACUACAACCUACUACCUCA | 1.64 ± 0.098
16 | GGAGACCUAUGUAUACAACCUACUACCUACA | 0.0758 ± 0.0088
17 | GGAGUGGAUACUAUACAUCCUACUUCCUCA | 0.0942 ± 0.013
18 | GGAGACGAUACUAUACAAGGAACUACCUCA | 0.00367 ± 0.0036
19 | GGAGUGGAUUCUAUACAACCUACUACCUCA | 1.63 ± 0.096
20 | CCUCUGGAUACUUUACAACCUACUACGUCA | 1.27 ± 0.083

Row | Sequence | pre-steady-state target cleavage rate
21 | GCUCUGGAUACUAAACAACCUACUACCUGA | 0.803 ± 0.11
22 | GGAGACCUAUGUAUACAACCUACCACCUCA | 0.205 ± 0.024
23 | CCUCUGGAUACUAUACUAGCUACUACCUCA | 0.697 ± 0.049
24 | GGAGACGAUACUAAACAACCUAGUACCUCA | 0.365 ± 0.043
25 | GCUCUGGAUACUAUACAAGCAACUACCUCA | 0.0337 ± 0.0066
26 | GGAGACCUUACUAUACAACCUACUAGCCUCA | 0.876 ± 0.078
27 | GGAGACCAUACUAUCCAACCUACUACCUCA | 1.69 ± 0.13
28 | GCUGUCGAUACUAUACAACCUACUACCUCA | 1.7 ± 0.11
29 | GGAGACCUAUGAAUACAAGCAACUACCUCA | < 0.0001
30 | CCUCUGGAUACUAUACUACCUACUUCCUCA | 0.655 ± 0.067
31 | GGUCUGGAUACUAUAUCAACCUACUACCUCA | 0.535 ± 0.081
32 | GGAGACCUUACUAAACUACCUACUACCUCA | 0.0421 ± 0.0095
33 | GGAGACCAAACUAUUCAACCUACUACCUCA | 0.766 ± 0.1
34 | GGACUGGAUACUAAACAACCAACUACCUCA | 0.087 ± 0.0098
35 | GGAGACCUAUCUAUACAUCCUACUAGCUCA | 0.111 ± 0.017
36 | GGAGACCUUACUUAUACAACCUACUACCUCA | 0.724 ± 0.066
37 | GCUCUGUAUACUAUACAACCUACUACCUCA | 1.76 ± 0.093
38 | GGAGACCUAAGUAUACAAGCUACUACCUCA | 0.0616 ± 0.012
39 | GGAGACCUAUCUAUACAACCUACUACCUGA | 0.516 ± 0.057
40 | GGAGAGGAUACUAUACUACCAACUACCUCA | 0.0289 ± 0.0042
